Results published in PubChem BioAssay (NCI).
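How tested: cells in 96-well plates exposed to compound for 48 hours at five concentrations. GI50 = concentration required for 50% inhibition of growth. At the TGI there is no net growth.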

test system: NCI-H322M lung; assay: DTP human tumour cell line panel, 48 h

Row | SMILES | GI50 [µM] | TGI [µM]
1 | C=C(C)[C@@H]1CC[C@]2(COP(=O)(OCC)OCC)CC[C@]3(C)[C@H](CC[C@@H]4[C@@]5(C)CCCNC(C)(C)[C@@H]5CC[C@]43C)[C@@H]12 | 1.52 | 2.89
2 | Cc1cc2ncc(-c3cc4ccccc4c(N4CCN(C)CC4)n3)nc2cc1C | 3.77 | 26
3 | COc1cccc2c1C=CC1(O2)Oc2cccc(OC)c2C=C1C (stereo not drawn) | 1.62 | > 100
4 | O=C(Nc1ccc(F)c(F)c1)c1cc(-c2ccc(F)cc2F)ccc1O | 1.56 | > 50
